Reference: the supplement of paper PMC12355420
Structures can show the parent of a compound that is named as a salt. Some of the results follow. No stated cut-off is given here; in the data, active = 0.5 or less and inactive = the rest. Single values are uncertain, as repeats are few or missing.

What was measured:
Details in all cases: 50 µM; 24 h
[1] = tested on: HeLa VPS33A reporter cells; assay: relative cell viability (CellMask signal) vs DMSO (fraction of DMSO); higher = less cytotoxic;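 further: primary screen of an FDA-approved drug library in HeLa reporter cells in 96-well format, CellMask signal normalized to DMSO-treated wells set as 1, under 0.5 deemed highly cytotoxic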
[2] = tested on: HeLa VPS33A R498W KI + HA-SDC1-FLAG; assay: relative GAG core protein HA-SDC1 amount per cell number vs DMSO (fraction of DMSO); higher = more SDC1 (GAG core protein);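 further: HA-SDC1 level read out by In-Cell Western staining with an anti-HA antibody against the N-terminal tag, screening FDA-approved library drugs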
[3] = tested on: HeLa VPS33A KO + NLuc-VPS33A R498W; assay: relative mutant VPS33A R498W amount (NanoLuc luminescence) vs DMSO (fraction of DMSO); HeLa model of a glycosaminoglycan (GAG) storage disease; KI is knock-in and KO knock-out; SDC1 is syndecan 1; higher = higher mutant VPS33A level;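 further: screen of an FDA-approved drug library, NanoLuc luminescence read after lysing the treated cells, taken as a measure of mutant VPS33A protein stability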

Row | Structure (SMILES) | relative cell viability [1] | relative GAG core protein HA-SDC1 amount per cell number [2] | relative mutant VPS33A R498W amount [3]
1 | COc1ccc(O)cc1 [Mequinol] | 0.99 | inactive: 0.937 | 1.1
2 | CCC(CC)[C@H](NC(C)=O)[C@@H]1[C@H](O)[C@@H](C(=O)O)C[C@H]1NC(=N)N [Peramivir] | 0.734 | inactive: 0.894 | 0.345
3 | CC(=O)O[C@H]1Cc2ccccc2N(C(N)=O)c2ccccc21 [Eslicarbazepine acetate] | 1.04 | inactive: 0.792 | 1.16
4 | CC(=O)N[C@H]1[C@H]([C@H](O)[C@H](O)CO)OC(C(=O)O)=C[C@@H]1NC(=N)N [Zanamivir] | 0.984 | inactive: 0.961 | 1.18
5 | Cc1c(F)cc(C(=O)NC2CC2)cc1-c1ccc(C(=O)NCC(C)(C)C)cn1 [Losmapimod] | 0.987 | inactive: 0.848 | 0.753
6 | O=c1[nH]cnc2c1ncn2[C@@H]1O[C@H](CO)[C@@H](O)[C@H]1O [Inosine] | 1.05 | inactive: 0.848 | 1.53
7 | Cc1c(C)c2c(c(C)c1O)CCC(C)(COc1ccc(CC3SC(=O)NC3=O)cc1)O2 (configuration not stated) [Troglitazone] | 1.09 | inactive: 1.24 | 1.38
8 | Nc1ccc(S(=O)(=O)Nc2nccs2)cc1 [Sulfathiazole] | 1.14 | inactive: 0.799 | 1.16
9 | COc1ccccc1N1CCN(CC(O)COc2cccc3ccccc23)CC1 (configuration not stated) [Naftopidil] | 1.27 | inactive: 1.01 | 0.927
10 | C#C[C@]1(OC(C)=O)CC[C@H]2[C@@H]3CCC4=C[C@@H](OC(C)=O)CC[C@@H]4[C@H]3CC[C@@]21C [Ethynodiol diacetate] | 1.34 | active: 0.254 | 0.771
11 | Oc1c(Cl)cc(Cl)c2cccnc12 [Chloroxine] | 1.02 | inactive: 0.644 | 4.7
12 | CCCCc1nc(Cl)c(CO)n1Cc1ccc(-c2ccccc2-c2nnn[nH]2)cc1 [Losartan] | 1.32 | inactive: 1.13 | 0.983
13 | CCN(CC)CCOC(=O)C(c1ccccc1)c1ccccc1 [Adiphenine HCl] | 1.05 | inactive: 0.792 | 1.12
14 | Cc1cc(C)cc(NC(=O)Cc2ccc(OC(C)(C)C(=O)O)cc2)c1 [Efaproxiral Sodium] | 1 | inactive: 0.827 | 1.06
15 | COc1cc(Nc2ncc3c(n2)-c2ccc(Cl)cc2C(c2c(F)cccc2OC)=NC3)ccc1C(=O)O [MLN8237 (Alisertib)] | 0.792 | active: 0.409 | 0.336
16 | CC(C)(Oc1ccc(C2CC2(Cl)Cl)cc1)C(=O)O (configuration not stated) [Ciprofibrate] | 1.22 | inactive: 0.998 | 1.15
17 | CC(=O)[C@@]1(O)CC[C@H]2[C@@H]3CCC4=CC(=O)CC[C@]4(C)[C@H]3CC[C@@]21C [17-Hydroxyprogesterone] | 1.11 | inactive: 1.03 | 1.33
18 | COCCOC(=O)C1=C(C)NC(C)=C(C(=O)OC(C)C)C1c1cccc([N+](=O)[O-])c1 (configuration not stated) [Nimodipine] | 1.08 | inactive: 1.26 | 0.259
19 | C[Se]CC[C@H](N)C(=O)O [L-Selenomethionine] | 1.01 | inactive: 1.02 | 1.1
20 | C=C[C@@H]1C[C@]1(NC(=O)[C@@H]1C[C@@H]2CN1C(=O)[C@H](C(C)(C)C)NC(=O)O[C@@H]1C[C@H]1CCCCCc1nc3ccc(OC)cc3nc1O2)C(=O)NS(=O)(=O)C1CC1 | 0.653 | active: 0.428 | 0.604
21 | O=C(O)c1cc(/N=N/c2ccc(O)c(C(=O)O)c2)ccc1O [Olsalazine Sodium] | 1.07 | inactive: 1.72 | 0.855
22 | C[C@]12CC[C@@H]3c4ccc(O)cc4C[C@@H](CCCCCCCCC[S+]([O-])CCCC(F)(F)C(F)(F)F)[C@H]3[C@@H]1CC[C@@H]2O (some centres not stated) [Fulvestrant] | 1.04 | inactive: 1.12 | 0.935
23 | CC[C@H](C)[C@H](NC(=O)[C@H](Cc1ccc(O)cc1)NC(=O)[C@@H](NC(=O)[C@H](CCCNC(=N)N)NC(=O)[C@@H](N)CC(=O)O)C(C)C)C(=O)N[C@@H](Cc1cnc[nH]1)C(=O)N1CCC[C@H]1C(=O)N[C@@H](Cc1ccccc1)C(=O)O [Angiotensin II] | 1.4 | inactive: 0.905 | 0.848
24 | CCC[C@@H]1C[C@@H](C(=O)N[C@@H]([C@H]2O[C@H](SC)[C@H](OP(=O)(O)O)[C@@H](O)[C@H]2O)[C@H](C)Cl)N(C)C1 [Clindamycin Phosphate] | 0.992 | inactive: 1.58 | 0.999
